Results from the supplement of paper PMC12217912.
The list shows a part of the results. Sequences were assembled here from the parent chain. Inactive controls read about 0.05.

B1: TEV protease; numbered along this chain (parent)
chain: MGESLFKGPRDYNPISSSICHLTNESDGHTTSLYGIGFGPFIITNKHLFRRNNGTLVVQSLHGVFKVKDTTTLQQHLVDGRDMIIIRMPKDFPPFPQKLKFREPQREERICLVTTNFQTKSMSSMVSDTSCTFPSGDGIFWKHWIQTKDGQCGSPLVSTRDGFIVGIHSASNFTNTNNYFTSVPKNFMELLTNQEAQQWVSGWRLNADSVLWGGHKVFMVKPEEPFQPVKEATQL

Variants of: B1
Test: raw area under fraction-flipped curve 0-4 h after induction (AUC4h, not background-subtracted), DNA-recorder readout of cleavage of the substrate (dimensionless); higher = more cleavage of the substrate by the protease variant
Conditions: temperature: 34 °C; time window: 0-4 h after rhamnose induction
Description: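 In vivo DNA recorder in E. coli TOP10(DE3) ΔrhaA at 34 °C. Each TEVp single-site mutant (parent TEVp 0) is paired with a single-site variant of the 7-mer TEVs (canonical ENLYFQ|S). The substrate sits between flexible linkers in a Bxb1-sfGFP-TEVs-SsrA fusion, so cleavage stabilises Bxb1 and speeds flipping of a recombination array, read by NGS. The value is the raw area under the fraction-flipped curve over 0-4 h after rhamnose induction (AUC4h), with ≥20 reads per time point. It is not background-subtracted; inactive controls average about 0.047.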
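Also: Bxb1 expression induced with 0.2% (w/v) L-rhamnose at OD600 near 0.5, cultures sampled hourly, flipped fraction per protease–substrate barcode pair counted by paired-end Illumina sequencing.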

Variant | area with substrate ENAYFQS | area with substrate ENCYFQS | area with substrate ENDYFQS | area with substrate ENEYFQS | area with substrate ENFYFQS | area with substrate ENGYFQS | area with substrate ENHYFQS | area with substrate ENIYFQS | area with substrate ENKYFQS | area with substrate ENMYFQS | area with substrate ENNYFQS | area with substrate ENPYFQS | area with substrate ENQYFQS | area with substrate ENRYFQS | area with substrate ENSYFQS | area with substrate ENTYFQS | area with substrate ENVYFQS | area with substrate ENWYFQS | area with substrate ENYYFQS
MGESLFKGPRDYNPISSSICHLTNESDGHTTSLYGIGFGPFIITNKHLDRRNNGTLVVQSLHGVFKVKDTTTLQQHLVDGRDMIIIRMPKDFPPFPQKLKFREPQREERICLVTTNFQTKSMSSMVSDTSCTFPSGDGIFWKHWIQTKDGQCGSPLVSTRDGFIVGIHSASNFTNTNNYFTSVPKNFMELLTNQEAQQWVSGWRLNADSVLWGGHKVFMVKPEEPFQPVKEATQL [F49D] | 0.0585 | 0.0639 | 0.0587 | 0.0525 | 0.0174 | 0.0668 | 0.0823 | 0.0503 | 0.0662 | 0.0524 | 0.0683 | 0.054 | 0.0645 | 0.0569 | 0.0701 | 0.0806 | 0.0577 | 0.0233 | 0.0568
MGESLFKGPRDYNPISSSICHLTNESDGHTTSLYGIGFGPFIITEKHLFRRNNGTLVVQSLHGVFKVKDTTTLQQHLVDGRDMIIIRMPKDFPPFPQKLKFREPQREERICLVTTNFQTKSMSSMVSDTSCTFPSGDGIFWKHWIQTKDGQCGSPLVSTRDGFIVGIHSASNFTNTNNYFTSVPKNFMELLTNQEAQQWVSGWRLNADSVLWGGHKVFMVKPEEPFQPVKEATQL [N45E] | 0.0598 | 0.0619 | 0.0597 | 0.0605 | 0.0608 | 0.0692 | 0.0537 | 0.059 | 0.0431 |  | 0.0604 | 0.0618 | 0.0584 | 0.0628 | 0.0539 | 0.0595 | 0.056 | 0.0443 | 0.069
MGESLFKGPRDYNPISSSICHLTNESDGHTTSLYGIGFGPFIITPKHLFRRNNGTLVVQSLHGVFKVKDTTTLQQHLVDGRDMIIIRMPKDFPPFPQKLKFREPQREERICLVTTNFQTKSMSSMVSDTSCTFPSGDGIFWKHWIQTKDGQCGSPLVSTRDGFIVGIHSASNFTNTNNYFTSVPKNFMELLTNQEAQQWVSGWRLNADSVLWGGHKVFMVKPEEPFQPVKEATQL [N45P] | 0.0658 | 0.0787 | 0.0651 | 0.0512 | 0.0678 | 0.0616 | 0.0623 |  |  | 0.077 | 0.0593 | 0.0382 |  | 0.0716 | 0.0648 | 0.0604 | 0.0594 |  | 
MGESLFKGPRDYNPISSSICHLTNESDGHTTSLYGISFGPFIITNKHLFRRNNGTLVVQSLHGVFKVKDTTTLQQHLVDGRDMIIIRMPKDFPPFPQKLKFREPQREERICLVTTNFQTKSMSSMVSDTSCTFPSGDGIFWKHWIQTKDGQCGSPLVSTRDGFIVGIHSASNFTNTNNYFTSVPKNFMELLTNQEAQQWVSGWRLNADSVLWGGHKVFMVKPEEPFQPVKEATQL [G37S] | 0.0425 | 0.0506 |  | 0.0485 |  |  | 0.0546 |  |  |  | 0.0603 | 0.0463 | 0.0569 |  | 0.0511 |  | 0.0614 | 0.0485 | 
MGESLFKGPRDYNPISSSICHLTNESDGHTTSLYGIGFGPFVITNKHLFRRNNGTLVVQSLHGVFKVKDTTTLQQHLVDGRDMIIIRMPKDFPPFPQKLKFREPQREERICLVTTNFQTKSMSSMVSDTSCTFPSGDGIFWKHWIQTKDGQCGSPLVSTRDGFIVGIHSASNFTNTNNYFTSVPKNFMELLTNQEAQQWVSGWRLNADSVLWGGHKVFMVKPEEPFQPVKEATQL [I42V] | 0.063 | 0.0593 | 0.061 | 0.0599 |  | 0.0746 |  |  | 0.0648 |  | 0.0525 | 0.059 | 0.042 | 0.0717 | 0.0505 |  | 0.086 |  | 0.0626
MGESLFKGPRDYNPISSSICHLTNESDGHTTSLYGIGFGQFIITNKHLFRRNNGTLVVQSLHGVFKVKDTTTLQQHLVDGRDMIIIRMPKDFPPFPQKLKFREPQREERICLVTTNFQTKSMSSMVSDTSCTFPSGDGIFWKHWIQTKDGQCGSPLVSTRDGFIVGIHSASNFTNTNNYFTSVPKNFMELLTNQEAQQWVSGWRLNADSVLWGGHKVFMVKPEEPFQPVKEATQL [P40Q] | 0.0969 | 0.0768 | 0.0512 | 0.0651 | 0.047 | 0.0557 |  | 0.104 | 0.0633 | 0.0923 | 0.0332 |  | 0.0607 |  | 0.0584 | 0.0609 |  | 0.0727 | 
MGESLFKGPRDYNPISSSICHLTNESDGHTTSLYGIGFLPFIITNKHLFRRNNGTLVVQSLHGVFKVKDTTTLQQHLVDGRDMIIIRMPKDFPPFPQKLKFREPQREERICLVTTNFQTKSMSSMVSDTSCTFPSGDGIFWKHWIQTKDGQCGSPLVSTRDGFIVGIHSASNFTNTNNYFTSVPKNFMELLTNQEAQQWVSGWRLNADSVLWGGHKVFMVKPEEPFQPVKEATQL [G39L] | 0.0551 | 0.0231 | 0.0812 | 0.0531 | 0.0489 | 0.0264 |  |  |  |  | 0.0384 | 0.0314 | 0.0401 | 0.0322 | 0.0338 |  | 0.038 | 0.0444 | 
MGESLFKGPRDYNPISSSICHLTNESDGHTTSLYGIGFYPFIITNKHLFRRNNGTLVVQSLHGVFKVKDTTTLQQHLVDGRDMIIIRMPKDFPPFPQKLKFREPQREERICLVTTNFQTKSMSSMVSDTSCTFPSGDGIFWKHWIQTKDGQCGSPLVSTRDGFIVGIHSASNFTNTNNYFTSVPKNFMELLTNQEAQQWVSGWRLNADSVLWGGHKVFMVKPEEPFQPVKEATQL [G39Y] | 0.0424 |  | 0.0498 | 0.0501 |  | 0.0488 | 0.0412 |  | 0.0451 | 0.037 | 0.0453 | 0.0496 | 0.0235 |  | 0.0508 | 0.0497 |  |  | 
MGESLFKGPRDYNPISSSICHLTNESDGHTTSLYGIGFFPFIITNKHLFRRNNGTLVVQSLHGVFKVKDTTTLQQHLVDGRDMIIIRMPKDFPPFPQKLKFREPQREERICLVTTNFQTKSMSSMVSDTSCTFPSGDGIFWKHWIQTKDGQCGSPLVSTRDGFIVGIHSASNFTNTNNYFTSVPKNFMELLTNQEAQQWVSGWRLNADSVLWGGHKVFMVKPEEPFQPVKEATQL [G39F] | 0.0998 | 0.0504 | 0.0456 | 0.0532 | 0.0113 | 0.0518 | 0.0382 | 0.0554 | 0.037 |  | 0.0435 | 0.0447 | 0.0453 | 0.0473 | 0.0473 |  | 0.0403 |  | 0.0421
